The source gives no read counts; variants with many changes may rest on few reads.
B1: CPEB3 Ribozyme (parent)
chain: UAACAGGGGGCCACAGCAGAAGCGUUCACGUCGCAGCCCCUGUCAGAUUCUGGUGAAUCUGCGAAUUCUGCUGUAUAUCUC

Variants of: B1
Experiment: self-cleavage, relative activity (ratio to wild type); higher = more cleavage; in vitro, sequencing
In short: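 Relative activity compares each variant's cleaved/total read fraction with that of the unmutated ribozyme. To get these fractions, barcoded CPEB3 ribozyme libraries from rounds of error-prone PCR were transcribed with T7 RNA polymerase for 5 hours at 37°C and then given 15 min of DNase I treatment before EDTA was added. The RNAs were reverse transcribed with template switching and sequenced on Illumina, and DNA sequencing linked barcodes to variants. A minimum of 5 reads applied, and three batches were averaged.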

Row | Variant | self-cleavage
1 | A3G G55C A64G | 0.58
2 | A3G G63A U78C | 0.55
3 | A3G U25A A56C U78C | 0.2
4 | A3G U25A A65G U67C U74A | 0.17
5 | A3G U25A G53C | 0.59
6 | A3G U25A G63A | 0.35
7 | A3G U25A U26A C34U C44U | 0.29
8 | A3G U25A U31A U43C U48C C62U U76A | 0.08
9 | A3G U25A U41C | 0.63
10 | A3G U25A U48C A57G G73A | 0.19
11 | A3G U25A U72C | 0.17
12 | A3G U25C A28G A35G U69C | 0.4
13 | A3G U25C A28G U49C C71U | 0.35
14 | A3G U25C A35G A56G | 0.66
15 | A3G U25C A45G U74A | 0.81
16 | A3G U25C A45U U69C G70C | 0.04
17 | A3G U25C A75U | 0.54
18 | A3G U25C C27A U54G G63A | 0.08
19 | A3G U25C C32A A64U U72C | 0.14
20 | A3G U25C C38A U41G A57G | 0.08
21 | A3G U25C C38U A56G U72C | 0.06
22 | A3G U25C C39U C40U U60A | 0.19
23 | A3G U25C G36A U41A A65G U78C U80C | 0.06
24 | A3G U25C G53U U72C | 0.88

Row | Variant | self-cleavage
25 | A3G U25C U26A A56G U72C | 0.57
26 | A3G U25C U26A A75U | 0.67
27 | A3G U25C U26C U41A | 0.63
28 | A3G U25C U31C C71G | 0.05
29 | A3G U25C U31C U51A C62G U76A | 0.13
30 | A3G U25C U41A | 0.49
31 | A3G U25C U41A U43C A45U U67A | 0.14
32 | A3G U25C U41C U80C | 0.58
33 | A3G U25C U43C U80C | 0.56
34 | A3G U25C U48C A56G A77G | 0.08
35 | A3G U25C U51C A64U U74C | 0.09
36 | A3G U25C U51C C79G | 0.12
37 | A3G U25C U60G | 0.3
38 | A3G U25C U67C U72C | 0.06
39 | A3G U25C U67G C68A U72C | 0.11
40 | A3G U25C U74A | 0.64
41 | A3G U25G U72A U74A | 0.21
42 | A3G U26A A47G | 0.79
43 | A3G U26A A64G | 0.93
44 | A3G U26A C50U U76C | 0.65
45 | A3G U26A G30A A64G | 0.3
46 | A3G U26A G30A U31A U48C A56G A64G | 0.08
47 | A3G U26A G30U U43A A47U U48C U80C | 0.09
48 | A3G U26A G33A A47G A56U | 0.03

Row | Variant | self-cleavage
49 | A3G U26A U43A U78C | 0.17
50 | A3G U26A U69C | 0.51
51 | A3G U26C A35G | 1.13
52 | A3G U26C A35G A47G U69C | 0.66
53 | A3G U26C A45G U54G A56G A57G | 0.32
54 | A3G U26C A45U | 0.54
55 | A3G U26C A56U | 0.23
56 | A3G U26C C29U | 0.48
57 | A3G U26C C32G A47G U58C | 0.14
58 | A3G U26C C62G | 0.25
59 | A3G U26C G33A | 0.42
60 | A3G U26C G52C | 0.75
61 | A3G U26C U41C A57U | 0.5
62 | A3G U26C U49C | 0.34
63 | A3G U26C U54A A56C U80A | 0.32
64 | A3G U26C U58A | 0.54
65 | A3G U26C U58C U78C | 0.05
66 | A3G U26C U60C A64G | 0.3
67 | A3G U26C U60C U69A | 0.25
68 | A3G U26C U66C C81A | 0.43
69 | A3G U26C U66C U74C | 0.19
70 | A3G U26G A57U U58G | 0.11
71 | A3G U26G A65G U66C U78C | 0.05
72 | A3G U26G U58A A65G A77U | 0.19

Row | Variant | self-cleavage
73 | A3G U31A A35C | 0.54
74 | A3G U31A A35G | 1.13
75 | A3G U31A A35G A47G U76C | 1.24
76 | A3G U31A A45G U51A U54A G61A | 0.24
77 | A3G U31A C38U G46A A64G U80A | 0.13
78 | A3G U31A G33C A65G | 0.11
79 | A3G U31A G46A U49A U72C U78A | 0.23
80 | A3G U31A U43A A56G A64G | 0.61
81 | A3G U31A U48C U49C U66A A77G | 0.08
82 | A3G U31C A35U | 0.5
83 | A3G U31C A35U C40U U72A | 0.06
84 | A3G U31C A45C G63C U67C | 0.1
85 | A3G U31C A47G G70A | 0.24
86 | A3G U31C A64G U76A A77G | 0.64
87 | A3G U31C C62U | 0.43
88 | A3G U31C G42A C62U | 0.3
89 | A3G U31C U41A U51C G53U | 0.44
90 | A3G U31C U43C A47G A56G U60C | 0
91 | A3G U31C U48C A56U U60G A65G | 0.08
92 | A3G U31C U72C | 0.45
93 | A3G U31C U80C | 0.98
94 | A3G U31G A47G A57G | 0.37
95 | A3G U31G A65G U66A | 0.17
96 | A3G U31G A77G | 0.79

Row | Variant | self-cleavage
97 | A3G U41A A56C A64G U74C | 0.15
98 | A3G U41A A56U U69C | 0.31
99 | A3G U41A C44A A56G U58C U72A U80A | 0.04
100 | A3G U41A U43C A56G U72A | 0.03
101 | A3G U41A U67A U80A | 0.3
102 | A3G U41A U67C A77G U78G | 0.02
103 | A3G U41A U80C | 0.56
104 | A3G U41C A45G A47G U49A A56G U74A | 0.5
105 | A3G U41C A47G | 1
106 | A3G U41C A47U U51C | 0.25
107 | A3G U41C A56U C62U | 0.36
108 | A3G U41C A56U U69A U72A | 0.23
109 | A3G U41C A57G U60C A75G | 0.76
110 | A3G U41C A65G U66A | 0.34
111 | A3G U41C C59A | 0.19
112 | A3G U41C U51A A77G | 1.14
113 | A3G U41C U54A U72A | 1.01
114 | A3G U41C U54C A64U U69G | 0.17
115 | A3G U41C U60A | 0.41
116 | A3G U41G A64U A65G U80C | 0.17
117 | A3G U41G U66C | 0.23
118 | A3G U43A A45G U76A | 1.05
119 | A3G U43A U80C | 1.09
120 | A3G U43C A47G U60A U78A U80C | 0.3

Row | Variant | self-cleavage
121 | A3G U43C A56G A65G U80C | 0.25
122 | A3G U43C A57U | 0.35
123 | A3G U43C U49A A65C U72A | 0.17
124 | A3G U43C U51C U54G | 0.44
125 | A3G U43C U54C U66A U78A | 0.15
126 | A3G U43C U58G A65C | 0.07
127 | A3G U43C U60A U69C | 0.6
128 | A3G U43C U80C | 0.59
129 | A3G U43G U48C G53A U69A U74G A75U | 0.03
130 | A3G U43G U49A | 0.15
131 | A3G U48C A75G | 0.39
132 | A3G U48C U60C | 0.34
133 | A3G U48C U67G | 0.26
134 | A3G U48C U74A | 1.11
135 | A3G U48C U78C | 0.79
136 | A3G U49A A65G | 0.37
137 | A3G U49A U51C U54C | 0.71
138 | A3G U49A U60C U69C | 0.14
139 | A3G U49C U54C | 0.82
140 | A3G U49C U60C | 0.32
141 | A3G U49C U60C U72C | 0.21
142 | A3G U51A A56G A57G | 0.4
143 | A3G U51A U58C U66C U74A | 0.23
144 | A3G U51A U67A U72C | 0.61

Row | Variant | self-cleavage
145 | A3G U51A U72C | 1.19
146 | A3G U51A U72G | 0.8
147 | A3G U51C A56G U74C U78C | 1.2
148 | A3G U51C U54C U76A U80C | 1.25
149 | A3G U51C U72A | 0.8
150 | A3G U51C U72G | 1.17
151 | A3G U51G A57G | 0.77
152 | A3G U51G U58C G70C U76A | 0.19
153 | A3G U54A A56U | 0.99
154 | A3G U54A U60A | 0.54
155 | A3G U54A U72A | 1.01
156 | A3G U54C A64G U69A | 0.36
157 | A3G U54C A77G U78C | 0.82
158 | A3G U54C C59U U67C U69A | 0
159 | A3G U54C U67C U80C | 0.34
160 | A3G U54C U69C | 0.46
161 | A3G U54C U78G | 0.97
162 | A3G U58A U66C | 0.28
163 | A3G U58C G63A U72C | 0.49
164 | A3G U58C U66C | 0.21
165 | A3G U58C U67A | 0.16
166 | A3G U58C U72C | 0.4
167 | A3G U60A A77U | 0.52

From the RNAGym collection of RNA variant scans (doi:10.1093/nar/gkz1192)
